# Assay results: US8673940B2, “Compounds for the treatment of diseases associated with amyloid or amyloid-like proteins” (AC Immune SA, priority 2006, dated 2014)
# Counter-ions that a name gives are not always drawn. Like-named read-outs stand apart in the source and are kept apart here. Some values that stand alone complete this part of the results.
smiles,measurement,setting,value
"Fc1ccc(-c2cc(NCc3cccc(NCc4ccccc4)n3)n[nH]2)cc1 (as salt: hydrochloride) [Compound 2t, N-Benzyl-6-((5-(4-fluorophenyl)-1H-pyrazol-3-ylamino)methyl)pyridin-2-amine]",melting point,free base,117 to 118 °C
same,melting point,hydrochloride salt,133 to 134 °C
